# In the supplement of paper PMC10338343:
# ± gives the standard deviation. Over roughly 5,500 sequences, “pre-steady-state target cleavage rate” has its median near 0.1; the highest 2% begin near 0.64. The entries are a selection whose mix differs from that of the whole data set.
# Tested on: MIWI (PIWIL1) piRISC loaded with piRNA #2 (30 nt)
# Assay: pre-steady-state target cleavage rate (min^-1); MIWI and MILI are mouse PIWI proteins and EfPiwi is from a freshwater sponge; tags in brackets are library labels; higher = faster piRNA-guided slicing of the target
# Details: guide: piRNA #2 5'p-UUAGGUAACCCAGUAGAUCCAGAGGAAUUC; auxiliary factor: 500 nM mouse GTSF1
# Outline: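 A burst-and-steady-state fit was used to obtain the pre-steady-state cleavage rate. The input data were sequencing reads of uncleaved targets, normalised to depth and to weakly complementary targets, from a […] transcribed, DNA-blocked target RNA library mixed with 1 nM active affinity-purified piRISC holding one synthetic guide, with or without 500 nM GTSF1 partner protein, in HEPES–potassium acetate buffer at 33 °C for 0–8 or 0–960 min. Three trials were pooled and k3 was capped at 0.0001 min^-1.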
row,Sequence,pre-steady-state target cleavage rate
1,CUUAAGCUCUGGAUCUACAGCGUUACCUAA,0.067 ± 0.013
2,CUUUUCCUCUGGAUCAACUGGGUUAGCUAA,0.134 ± 0.029
3,CUAAUCCUCAGGAUCUACUGGGUUACCUAA,0.55 ± 0.055
4,GAAUUCGUCUGGAUCUACUGGGUUACCUAA,0.393 ± 0.059
5,CUUAACCUCUGGAUCUACUCGGAUACCUAA,0.0189 ± 0.01
6,CUUAAGCUCUGGAUCUACACGGUUACCUAA,0.0859 ± 0.011
7,CUUAAGGUCUGGAUCUACACGGUUACCUAA,0.126 ± 0.016
8,GAAUUCCUCUGGAUCUACUGGGUUACCAA,0.381 ± 0.064
9,CAAUUCCUCUUGAUCUACUGGGUUACCUAA,0.866 ± 0.044
10,CUUAAGGUCUUGGAUCUACUGGGUUACCUAA,0.291 ± 0.03
11,GAAUUGCUCUCGAUCUACUGGGUUACCUAA,0.452 ± 0.071
12,CUAUUCCUCUGGAUCUAGAGGGUUACCUAA,0.0256 ± 0.0071
13,CUUAAGGACAGGAUCUACUCGGUUACCUAA,0.00947 ± 0.0079
14,GAAUUCCUCUGGAUGUUCUGGGUUACCUAA,0.268 ± 0.035
15,CUUAAGGUCUGGACUCUACUGGGUUACCUAA,0.0637 ± 0.021
16,CUUAUCCUCUGGAUCUACUCGGUUACGUAA,0.117 ± 0.036
17,CUUAUCCUCUGGUUCAACUGGGUUACCUAA,0.469 ± 0.034
18,CAAUUCCUCUGGAUCUACUGGGUUUGGUAA,0.0353 ± 0.017
19,CUAUUCCUCUGGAUCUACUGGGUUACCUUAA,0.302 ± 0.043
20,GAAUUCCUCUGGAUCUACUGGGUUUGGAUA [g7:g30:cont:t1A],0.176 ± 0.059
21,CAAUUCCUCUGGAUCUACUGGGUUGACCUAA,0.35 ± 0.045
22,CUAUUCGUCUCGAUCUACUGGGUUACCUAA,0.599 ± 0.055
23,CAAUUCCUCUGGAUCUACGGGUUACCUAA,0.0524 ± 0.011
24,CUUUUCCUCUCGAACUACUGGGUUACCUAA,0.463 ± 0.033

row,Sequence,pre-steady-state target cleavage rate
1,CUUAUCCUCUCGUUCUACUGGGUUACCUAA,0.41 ± 0.039
2,CUUAACCUCUGGAACAACUGGGUUACCUAA,0.257 ± 0.024
3,CUUAACGACUGGAUCUACUGGGUUACCUAA,0.2 ± 0.036
4,CUAUUCACUCUGGAUCUACUGGGUUACCUAA,0.241 ± 0.048
5,CUUAAGGUCUGGAACUACAGGGUUACCUAA,0.0897 ± 0.022
6,CUUAACCUCUGGAUCUUCUGGGUUACCUUA,0.168 ± 0.028
7,GAAUUCCUCUGGAACUACUGGCUUACCUAA,0.133 ± 0.021
8,GAAUUCCUCUGGAUCUACUGGGUUUCCAAA,0.143 ± 0.045
9,CUUUUCCUCUGGAUCUACUGGCUUACGUAA,0.0801 ± 0.019
10,CUUAAGCUGUGGAACUACUGGGUUACCUAA,0.075 ± 0.03
11,GAAUUCCUCUGGAUCUACUGGGUCACCUAA,0.232 ± 0.054
12,CUAUUCCUCUGGAUCUUCUGCGUUACCUAA,0.243 ± 0.034
13,CUUAAGCUCUGCAUCUACUGGGUUACCUUA,0.0877 ± 0.015
14,CUUAAGGUCUGGAACUACUGGGUUUCCUAA,0.0283 ± 0.013
15,CAAUUCCUGCUGGAUCUACUGGGUUACCUAA,0.473 ± 0.051
16,CUAUUGCUGUGGAUCUACUGGGUUACCUAA,0.322 ± 0.044
17,CUUUUCCUCUGGAUCUACUGGGUUACCUGA,0.509 ± 0.15
18,CUUAAGGAGACCAUCUACAGCGUUACCUAA,0.00739 ± 0.0012
19,CUAAUCCACUGGAUCUACUGGGUUACCUAA,0.441 ± 0.041
20,CUUAUCCUCUGGUUCUACUGGCUUACCUAA,0.122 ± 0.012
21,GAAUUCGUCUGGAUGUACUGGGUUACCUAA,0.0696 ± 0.037
22,CUUAAGGUACUGGAUCUACUGGGUUACCUAA,0.183 ± 0.026
23,GAAUUCCUGUGGAUCUACUGCGUUACCUAA,0.362 ± 0.053
24,CUUAAGCACUGGAUCUACUGGGUUACCAAA,0.202 ± 0.025

row,Sequence,pre-steady-state target cleavage rate
1,CUUAAGGUCUGGAUCUACUGGGUUUCGUAA,0.0875 ± 0.017
2,CUAUUCCUCUCGAUCUAGUGGGUUACCUAA,0.353 ± 0.023
3,CUUAUCCUCUGGAUGUUCUGGGUUACCUAA,0.332 ± 0.04
4,GAAUUCCUCUGGAUCUACUGCGUUACCUUA,0.296 ± 0.05
5,CUUAUCCUGAGGAUCUACUGGGUUACCUAA,0.272 ± 0.034
6,GAAUUCGAGUGGAUCUACUGGGUUACCUAA,0.345 ± 0.033
7,CUUAAGGAGACCUAGAUGAGCGUUACCUAA,0.00489 ± 0.0017
8,GAAUUCCUCUGGAUCUACUGGGUUACUAA,0.423 ± 0.054
9,GAAUUCCGCUGGAUCUACUGGGUUACCUAA,0.445 ± 0.041
10,CUUAAGGACUGGAUCUACUGGUUUACCUAA,0.0484 ± 0.036
11,CUUAUCCUCUGGAUCAACUGGCUUACCUAA,0.0658 ± 0.014
12,CUUUUCCUCUGGAUCUACUGGGUUACCAUA,0.437 ± 0.048
13,CUUAAGCUCUGGAUCUACUGGGUUACACUAA,0.34 ± 0.038
14,CUUAAGGUCUGGAUCUACUGGGUUACCGUAA,0.205 ± 0.036
15,CUAUUCCUCUGGUACUACUGGGUUACCUAA,0.459 ± 0.061
16,CUUAACCUCUGGAUCUACUGGGUUACCUCAA,0.142 ± 0.018
17,CAAUUCCUCUGGAUGUACUGCGUUACCUAA,0.606 ± 0.1
18,CUUUUCCUCUGUGAUCUACUGGGUUACCUAA,0.374 ± 0.028
19,CUUAUCCUCUGUAUCUACUGGGUUACCUAA,0.311 ± 0.033
20,GAAUUCCUCUGGUUCUACUGGCUUACCUAA,0.193 ± 0.019
21,CUUAUCGUCUCGAUCUACUGGGUUACCUAA,0.411 ± 0.052
22,CUUAUCCUCUGGAUGUACUGGGUUUCCUAA,0.267 ± 0.06
23,CUUAAGCUGUCGAUCUACUGGGUUACCUAA,0.061 ± 0.017
24,CUUAAGCUGUGGAUCUACAGGGUUACCUAA,0.146 ± 0.025
